Measured values reported in PubChem BioAssay (NCI).
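Protocol summary: plate cells (96-well), add compound at 5 concentrations, incubate 48 h, interpolate endpoints linearly. GI50: concentration for 50% inhibition of growth.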 Certain results were filed several times, with different values. The other results are left out here. The source may hold further records. For some of these results: The tests behind the records often covered other concentration ranges, which the source does not state; a value can be the end of its range. For some of these results: Values that stand side by side are repeats (runs, samples, wells, individuals or studies). A tag in brackets gives the origin of a value. The letters are not those of the source and start again with each entry.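 TGI: concentration producing complete growth inhibition.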

Columns and labels:
Experiment in all cases: DTP human tumour cell line panel, 48 h
MOLT-4 leukemia = tested on: MOLT-4 leukemia
SNB-75 CNS = tested on: SNB-75 CNS
M14 melanoma = tested on: M14 melanoma
SF-268 CNS = tested on: SF-268 CNS
SF-295 CNS = tested on: SF-295 CNS
HL-60(TB) leukemia = tested on: HL-60(TB) leukemia
SF-539 CNS = tested on: SF-539 CNS
SNB-78 CNS = tested on: SNB-78 CNS
NCI-H226 lung = tested on: NCI-H226 lung
XF 498 CNS = tested on: XF 498 CNS
OVCAR-8 ovarian = tested on: OVCAR-8 ovarian
LOX IMVI melanoma = tested on: LOX IMVI melanoma
OVCAR-3 ovarian = tested on: OVCAR-3 ovarian
OVCAR-4 ovarian = tested on: OVCAR-4 ovarian
HCT-116 colon = tested on: HCT-116 colon
HOP-18 NSCLC = tested on: HOP-18 NSCLC
SK-OV-3 ovarian = tested on: SK-OV-3 ovarian
SK-MEL-5 melanoma = tested on: SK-MEL-5 melanoma
DMS 273 small cell lung = tested on: DMS 273 small cell lung
UACC-257 melanoma = tested on: UACC-257 melanoma
SW-620 colon = tested on: SW-620 colon
DMS 114 small cell lung = tested on: DMS 114 small cell lung
COLO 205 colon = tested on: COLO 205 colon
UACC-62 melanoma = tested on: UACC-62 melanoma
HOP-92 NSCLC = tested on: HOP-92 NSCLC
KM12 colon = tested on: KM12 colon
SN12C renal = tested on: SN12C renal
UO-31 renal = tested on: UO-31 renal
NCI-H522 lung = tested on: NCI-H522 lung
MDA-MB-231 breast = tested on: MDA-MB-231 breast
786-0 renal = tested on: 786-0 renal
BT-549 breast = tested on: BT-549 breast
CAKI-1 renal = tested on: CAKI-1 renal
NCI-H23 lung = tested on: NCI-H23 lung
HT29 colon = tested on: HT29 colon
K-562 leukemia = tested on: K-562 leukemia
CCRF-CEM leukemia = tested on: CCRF-CEM leukemia
HOP-62 NSCLC = tested on: HOP-62 NSCLC
IGROV1 ovarian = tested on: IGROV1 ovarian

CC(=O)NC1(C(=O)N[C@@H](Cc2ccccc2)C(=O)NC2CCCCC2)Cc2ccc3ccccc3c2-c2c(ccc3ccccc23)C1
TGI (MOLT-4 leukemia): 6.66 µM [sample A, 1 test] and 70.5 µM [sample B, 1 test]

CC(C)C[C@H](NC(=O)[C@H](Cc1cccc2ccccc12)NS(=O)(=O)c1cccc2cccnc12)B(O)O
GI50 (SNB-75 CNS): 1.37 nM and 549 nM | TGI (SNB-75 CNS): 8.24 nM and > 100 µM | GI50 (M14 melanoma): 2.66 nM and 28.7 nM | TGI (M14 melanoma): 27.7 nM and > 100 µM | GI50 (SF-268 CNS): 1.89 nM and 48.8 nM | TGI (SF-268 CNS): 29.9 nM and > 100 µM | TGI (SF-295 CNS): 924 nM and > 100 µM | TGI (HL-60(TB) leukemia): 2.46 nM and > 100 µM | TGI (SF-539 CNS): 0.376 nM and 463 nM

COc1cc(/C=C\c2ccc(Br)cc2)cc(OC)c1OC
TGI (SNB-75 CNS): 3 nM and 96.7 µM | TGI (M14 melanoma): 2.57 nM and 12.1 µM | TGI (SNB-78 CNS): 0.795 nM and > 100 µM | TGI (NCI-H226 lung): 188 nM and > 100 µM | TGI (XF 498 CNS): 62.3 nM and 46.1 µM | TGI (OVCAR-8 ovarian): 105 nM and > 100 µM

CC1[C@@H]2CC=C3[C@H]4CCC5Cc6nc7c(nc6C[C@@]5(C)C4(O)CC(=O)[C@]32CO[C@]12OC(C)(C)CC2O)CC1CC[C@@H]2C3=C[C@H]4O[C@@]5(O[C@@](C)(CO)C[C@@H]5O)C(C)[C@@]4(O)[C@]3(C)[C@@H](O)CC2[C@]1(C)C7 (stereo partly specified)
TGI (LOX IMVI melanoma): 55.3 nM and 1.35 µM | GI50 (OVCAR-3 ovarian): 343 nM and > 3.6 µM | GI50 (OVCAR-4 ovarian): 16.8 nM and 882 nM | GI50 (HCT-116 colon): 0.294 nM and 3.95 nM | GI50 (HOP-18 NSCLC): 14.4 nM and > 3.6 µM | TGI (SK-OV-3 ovarian): 3.2 nM and 208 nM | TGI (SNB-75 CNS): 0.507 nM and 207 nM | TGI (SK-MEL-5 melanoma): 20.5 nM and > 3.6 µM | TGI (DMS 273 small cell lung): 0.119 nM and 44.1 nM | GI50 (UACC-257 melanoma): 0.917 nM and 10.5 nM | TGI (UACC-257 melanoma): 3.93 nM and 65 nM | TGI (SW-620 colon): 4.85 nM and 62.4 nM | GI50 (SNB-78 CNS): 0.251 nM and 3.15 nM | TGI (SNB-78 CNS): 7.75 nM and > 3.6 µM | TGI (DMS 114 small cell lung): 8.18 nM and 386 nM | GI50 (COLO 205 colon): 0.623 nM and 11.2 nM | TGI (UACC-62 melanoma): 0.383 nM and 4.19 nM | TGI (HOP-92 NSCLC): 8.49 nM and 194 nM | TGI (HL-60(TB) leukemia): 16.1 nM and 196 nM | GI50 (KM12 colon): 0.372 nM and > 3.6 µM | TGI (KM12 colon): 36.5 nM and > 3.6 µM | TGI (SF-539 CNS): 0.252 nM and 6.8 nM | GI50 (SN12C renal): 105 nM and > 3.6 µM | GI50 (NCI-H226 lung): 0.142 nM and > 3.6 µM | TGI (NCI-H226 lung): 50.3 nM and > 3.6 µM | GI50 (UO-31 renal): 1.18 nM and 37.9 nM | TGI (UO-31 renal): 4.78 nM and 217 nM | GI50 (NCI-H522 lung): 0.786 nM and 11.3 nM | TGI (NCI-H522 lung): 5.05 nM and 200 nM

CC(C)C[C@H](NC(=O)[C@@H](NC(=O)c1cccc(-c2ccccc2)n1)[C@@H](C)O)B(O)O
TGI (MDA-MB-231 breast): 53.4 nM [1 test] and 551 nM [mean of 3 tests] | TGI (786-0 renal): 96.4 nM [1 test] and 2 µM [mean of 3 tests] | TGI (BT-549 breast): 117 nM [1 test] and < 11.4 nM [mean of 3 tests] | TGI (CAKI-1 renal): 163 nM [1 test] and 6.26 µM [mean of 2 tests] | TGI (NCI-H23 lung): 753 nM [1 test] and 46.9 nM [mean of 3 tests]

CCN(CC)CCOC(=O)Cc1cccc2c(=O)cc(-c3ccccc3)oc12
TGI (HT29 colon): 62.5 µM and > 625 µM | TGI (CAKI-1 renal): 43.5 µM and > 625 µM | TGI (COLO 205 colon): 62.5 µM and > 625 µM | TGI (K-562 leukemia): 62.5 µM and > 625 µM | TGI (CCRF-CEM leukemia): 61.2 µM and > 625 µM | TGI (UO-31 renal): 13.7 µM and > 625 µM

Cn1cnc2c(F)c(Nc3ccc(Br)cc3F)c(C(=O)NOCCO)cc21
GI50 (HOP-62 NSCLC): 28.3 nM [sample A, mean of 2 tests] and 983 nM [sample B, 1 test] | GI50 (SNB-75 CNS): 135 nM [sample A, 1 test] and > 62.2 µM [sample B, mean of 2 tests] | TGI (SNB-75 CNS): 1.2 µM [sample A, 1 test] and > 100 µM [sample B, mean of 2 tests] | TGI (COLO 205 colon): 2.1 µM [sample A, mean of 2 tests] and > 39.9 µM [sample B, mean of 2 tests] | GI50 (IGROV1 ovarian): 112 nM [sample A, mean of 2 tests] and 3.91 µM [sample B, mean of 2 tests]
